Source: ChEMBL document CHEMBL4888484, “Replenishing the malaria drug discovery pipeline: Screening and hit evaluation of the MMV Hit Generation Library 1 (HGL1) against asexual blood stage Plasmodium falciparum ,using a nano luciferase reporter read-out” (2022)
The whole screen tested about 150,000 compounds, of which about 540 (0.36%) showed an effect of 50% or more. The list shows a part of the results.

Each molecule was assayed on Plasmodium falciparum (assay: Primary screen in NF54 nanoGlo assay, in single point, at 2uM, 72h; a lower Z score goes with more inhibition). Details: timepoint 72 hour.
Assay type: functional, Erythrocyte

Structure (SMILES) | % Inhibition | Z score
O=C1CCCN1CCCC(=O)N1CCO[C@@H](Cc2cccc3ccccc23)C1 | 1% | -0.23
COc1ccccc1OCc1ccc(C(=O)N2N=CC[C@]2(O)C(F)(F)F)cc1 | -38% | 4.45
COc1cccc(Oc2nc(N3CCCCC3)nc3c2CN(Cc2cc(OC)c(OC)c(OC)c2)CC3)c1 | -9% | 1.3
CS(=O)(=O)N1CCc2nc(NC(=O)c3ccc(=O)[nH]n3)sc2C1 | -16% | 2.27
Cc1ccc(C)c(S(=O)(=O)NC[C@H](O)c2ccc3c(c2)CCO3)c1 | -17% | 2.14
O=C1NCCCCCCN(Cc2ccncc2)[C@@H]2CN(S(=O)(=O)c3cccc4nsnc34)CC[C@@H]12 | -5% | 0.75
CN(Cc1cscn1)C(=O)CCN1CCN(c2ccccc2)CC1 | -7% | 1.02
COc1cccc(NC(=O)c2ccc3c(c2)nnn3C2CCCC2)c1 | -14% | 1.85
COc1ncnc(OC)c1S(=O)(=O)N1CCOCC1 | -7% | 0.81
COCCc1noc(CNC(=O)c2cc(Cl)cn2C)n1 | -5% | 1.05
O=C(NC[C@H]1CCCN(c2ccncc2F)C1)C1CCOCC1 | 0% | -0.07
N#Cc1cnc(-c2ccc(F)cc2)n(CC(=O)N2CCN(c3ccccc3)CC2)c1=O | -10% | 1.32
CN(C)c1noc(CNC(=O)NCC(F)(F)F)n1 | -5% | 0.91
CC1(C#N)CCN(Cc2cc(C(C)(C)C)[nH]n2)CC1 | 4% | -0.56
CC1C[S+]([O-])CCN1C(=O)COc1ccc(Cl)cc1Cl (stereo not drawn) | 5% | -0.58
COc1ccc(CN2C(=O)N[C@@H](CCC(=O)Nc3nccs3)C2=O)cc1OC | -3% | 0.4
CCN(CC)CCOc1ccc(CN2C(=O)CN(C3CC3)C2=O)cc1 | -4% | 0.88
COc1cccnc1N(C)C(=O)C1CC(C)OC(C)C1 (stereo not drawn) | 14% | -1.57
COc1cccc(-c2ccc(N3CCCN(C(=O)CN(Cc4ccc(F)cc4)C(=O)c4ccc(Cl)cc4)CC3)nn2)c1 | -12% | 1.18
COCCn1ccc(C(=O)N2CC(C)CC2c2ccc(OC)cc2)n1 (stereo not drawn) | -2% | 0.26
CCCS(=O)(=O)N1CCC[C@H](c2nnc(-c3cccs3)o2)C1 | -14% | 2.59

Structure (SMILES) | % Inhibition | Z score
COc1cc(C(=O)N[C@H]2CS(=O)(=O)C[C@@H]2OC)ccn1 | 1% | -0.2
Cn1nccc1[C@H](CO)NC(=O)c1cccc2c1CCOC2 | -2% | 0.39
Cc1nc(NC(=O)NCC(=O)NC2CC2)ccc1Br | 0% | -0.05
O=C(CCC(=O)N1CCCCCC1)NCc1cccs1 | 37% | -0.96
CC(C)c1nc(C(C)NC(=O)C2COCCO2)cs1 (stereo not drawn) | -5% | 0.55
COc1ccc([C@H]2C3CCCCC3(O)CCN2CC(=O)NCc2ccco2)cc1 (stereo partly drawn) | -8% | 1.19
Cc1c(C(=O)N2CCC[C@H]2c2nnc3ccccn23)oc2ccccc12 | -15% | 2.66
Cc1c[nH]c(CNC(=O)c2coc(COc3ccc(F)cc3)n2)n1 | 1% | -0.11
CCN(CC)C(=O)NCc1c(C)cc(C)[nH]c1=O | -3% | 0.39
O=C(Nc1ccc(S(=O)(=O)Nc2cccc3ccccc23)cc1)c1ccccc1 | -13% | 1.68
C=C[C@H](CO)NC(=O)c1cc(Br)cnc1C1CC1 | 3% | -0.46
Cc1cnc(C[C@H]2CCN(C(=O)c3ccncc3)C2)n1CC1CC1 | -5% | 0.67
Fc1cnc(/C=C/c2ccccc2)nc1N1CCOCC1 | -2% | 0.33
CC(C)(C)OC(=O)N1CCN(c2nnc(N)s2)CC1 | -11% | 1.2
Cc1occc1C(=O)NCCc1cccc2cccnc12 | -9% | 1.4
O=c1c(S(=O)(=O)N2CCCC2)cccn1Cc1noc(-c2ccco2)n1 | -4% | 0.46
COCc1cccc(C(=O)N2CCOc3ncccc32)c1 | -5% | 0.6
Cc1cc(C(=O)NC2CCN(C(C)C)C2c2ccc(F)c(F)c2)no1 (stereo not drawn) | 6% | -0.7
CC[C@H](C)c1cc(C(=O)N(C)c2ccccc2S(C)(=O)=O)on1 | -4% | 0.65
Cn1cc(Cl)c(-c2nc3c(cnn3Cc3cccnc3)[nH]2)n1 | 0% | 0
Cc1cc(C)c2c(CC(=O)N3CCC(c4nnc(N)[nH]4)CC3)coc2c1C | -6% | 0.81

Structure (SMILES) | % Inhibition | Z score
CCC(=O)N[C@@H]1c2ccccc2C2(CCN(C(=O)C3=C(C)OCCO3)CC2)[C@H]1OCc1cccnc1 | 12% | -1.53
COC[C@H](C)NC(=O)C1(N2C(=O)c3ccccc3C2=O)CCCC1 | 17% | -1.99
CCn1cc(CN2CCC(O)(c3cc(OC)cc(OC)c3)CC2)cn1 | -15% | 2.68
CCCc1cc(N2CCC[C@H](c3nnc(Cn4ccnc4)n3C)C2)nc(C)n1 | -6% | 0.74
CC1OCCC1C(=O)N1CCC=Cc2ccccc21 (stereo not drawn) | -3% | 0.41
CN1CCC2C(CCCN2C(=O)C2(C3CCC3)CCC2)C1 (stereo not drawn) | -15% | 2.64
CCn1c(C)c(C)c2cc(C(=O)Nc3cccc(S(=O)(=O)N4CCOCC4)c3)ccc21 | 31% | -0.04
O=C(N[C@H]1CCCNC1=O)c1ccc(-c2ccc3c(c2)CCO3)cc1 | 3% | -0.52
CC(C)c1cc(NCc2cccnc2Oc2ccc(F)cc2F)ncn1 | -2% | 0.32
CCS(=O)(=O)NCCNc1ccccn1 | 1% | -0.11
COCC(=O)N1CCCC[C@H]1C1=CCCN(Cc2c(C)noc2C)C1 | 4% | -0.71
Cc1nn(C)cc1NC(=O)CN1CCC[C@H](CNC(=O)c2ccco2)C1 | -4% | 0.7
Cc1occc1C(=O)NCc1ccc(CN2CC(C)CC(C)C2)cc1 (stereo not drawn) | -1% | 0.08
CCn1c(CC2CCN(Cc3ccnn3-c3ccccc3)CC2)n[nH]c1=O | -1% | 0.17
Cc1ccc(-c2[nH]c([C@H]3CC(=O)N(C4CC4)C3)nc2C)c(C)c1 | -12% | 2.21
O=C(Nc1cc(F)ccc1Br)NC1CCOC1C1CC1 (stereo not drawn) | -10% | 1.24
COc1ccc(=O)n(C[C@@H](O)CCc2ccccc2)n1 | -13% | 1.3
CC(C)(CNC1CCN(C(N)=O)CC1)c1ccc(C(F)(F)F)cc1 | -12% | 1.9
O[C@H](COc1ccc2ccccc2c1)CN1CCN(c2nccs2)CC1 | 1% | -0.11
COc1ccc(CNC(=O)N2C[C@@H]3C[C@H](NS(=O)(=O)c4cccs4)[C@H]2C3)cc1 | 34% | -3.89
Nc1c(NC(=O)NCCc2ccccc2)c(-c2ccc(Cl)cc2)nn1-c1cc(F)ccc1F | 5% | -0.73

Structure (SMILES) | % Inhibition | Z score
COc1ccc2c(=O)n(Cc3nc(-c4ccccc4)no3)oc2c1 | -9% | 1.1
CNc1ncc(C(=O)N2CC[C@]34C(=O)N(Cc5cn(nn5)CCCOc5cccc(c5)[C@H]23)c2ccccc24)cn1 | 2% | -0.21
CCN1CCN([C@H]2CCN(C(=O)Nc3cccc4c3CCN(C)C4=O)C2)CC1 | -10% | 1.29
CC[C@H](O)CNC(=O)c1cc(C)sn1 | -19% | 3.75
COCCCn1cnnc1CNC(=O)[C@H](C)n1cc(Cl)cn1 | -10% | 1.65
CC(C)n1ncc2c1C[C@@H](NC(=O)c1cccn1C)CC2 | -11% | 1.49
Cn1c(N2CCC(C(=O)NCc3ccc(Cl)cc3)CC2)cc(=O)n(C)c1=O | -6% | 1
CC1(C)CC(=O)C2(Cc3c(ccc4ccccc34)N(Cc3ccc4c(c3)OCO4)C2)C(=O)C1 | -38% | 4.41
COCCc1nc([C@H]2CCCS(=O)(=O)C2)n(-c2cccc(C)c2C)n1 | -15% | 1.57
CO[C@H]1CCCN(c2ncnc3c2nnn3C)CC1 | 1% | -0.1
Cc1ccc2[nH]c3c(=O)n(CC(=O)N4CCN(c5cccc(C(F)(F)F)c5)CC4)cnc3c2c1 | -1% | 0.14
COC[C@H](C)OC(=O)c1cc(CC(C)C)n[nH]1 | 3% | -0.39
CN(C)c1ccc(C(=O)N(CCC#N)Cc2ccco2)cn1 | -9% | 1.54
CC(C)N(C(=O)c1cc2c(F)cccc2s1)c1ncccc1C#N | -6% | 0.74
Cc1nsc(NC(c2ccc(Cl)cc2)C2CN(C)CCO2)c1C#N (stereo not drawn) | -7% | 1.29
CC(C)(CNC(=O)NC1CC2CC2C1)C1=CCOCC1 (stereo not drawn) | 2% | -0.37
COc1ccc(CCNC(=O)CN2C(=O)C[C@](C)(c3ccc(Br)cc3)C2=O)cc1 | -4% | 0.46
CCC1COCCN1C(=O)C1CC12CCc1ccccc12 (stereo not drawn) | -4% | 0.49
CCc1nc(N)nc(NC[C@H]2CCCN(Cc3ccco3)C2)c1C | -8% | 0.99
CC(C)CN1CCC(C(=O)N2CC3CC=CCC3C2)C1 (stereo not drawn) | 4% | -0.41
Cc1ccc(S(=O)(=O)N2CC(C)N(C(=O)N3CCOCC3)C2C)cc1 (stereo not drawn) | 36% | -4.9
